These are yes or no findings as the source states them, for the method shown. Binding seen in cells or lysates may run through a third protein. Some entries that bind do so weakly or less than the wild type. For some assays here: Tags and fused reporters may be left off the sequences shown.
T1: S-tagged TMEM43 (human) (UniProt Q9BTV4)
T1 sequence: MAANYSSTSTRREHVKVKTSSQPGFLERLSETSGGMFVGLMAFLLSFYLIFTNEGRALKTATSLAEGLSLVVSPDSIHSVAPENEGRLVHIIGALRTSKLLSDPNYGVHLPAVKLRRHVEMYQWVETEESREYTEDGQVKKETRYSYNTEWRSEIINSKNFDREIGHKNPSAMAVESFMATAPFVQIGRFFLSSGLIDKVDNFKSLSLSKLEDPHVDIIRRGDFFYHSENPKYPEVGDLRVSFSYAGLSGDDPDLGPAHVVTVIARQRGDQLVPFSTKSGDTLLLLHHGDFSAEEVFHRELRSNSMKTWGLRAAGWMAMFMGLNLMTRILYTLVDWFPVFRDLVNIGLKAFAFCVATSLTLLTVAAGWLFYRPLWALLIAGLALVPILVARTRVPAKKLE

Amino acid sequences for entries named in this document (tags omitted).
UniProt Q9BY78: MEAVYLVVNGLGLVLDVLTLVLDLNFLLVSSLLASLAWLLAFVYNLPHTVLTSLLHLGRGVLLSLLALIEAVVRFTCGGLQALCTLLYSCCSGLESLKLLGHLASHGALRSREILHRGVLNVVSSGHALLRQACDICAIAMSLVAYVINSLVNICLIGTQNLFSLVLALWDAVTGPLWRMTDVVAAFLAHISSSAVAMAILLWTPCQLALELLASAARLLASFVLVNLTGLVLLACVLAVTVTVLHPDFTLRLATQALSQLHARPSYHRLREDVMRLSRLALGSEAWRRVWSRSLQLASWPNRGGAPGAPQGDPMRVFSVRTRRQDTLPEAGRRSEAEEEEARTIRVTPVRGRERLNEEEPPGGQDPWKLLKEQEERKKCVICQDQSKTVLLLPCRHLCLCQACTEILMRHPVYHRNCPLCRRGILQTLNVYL
UniProt Q4ZIN3: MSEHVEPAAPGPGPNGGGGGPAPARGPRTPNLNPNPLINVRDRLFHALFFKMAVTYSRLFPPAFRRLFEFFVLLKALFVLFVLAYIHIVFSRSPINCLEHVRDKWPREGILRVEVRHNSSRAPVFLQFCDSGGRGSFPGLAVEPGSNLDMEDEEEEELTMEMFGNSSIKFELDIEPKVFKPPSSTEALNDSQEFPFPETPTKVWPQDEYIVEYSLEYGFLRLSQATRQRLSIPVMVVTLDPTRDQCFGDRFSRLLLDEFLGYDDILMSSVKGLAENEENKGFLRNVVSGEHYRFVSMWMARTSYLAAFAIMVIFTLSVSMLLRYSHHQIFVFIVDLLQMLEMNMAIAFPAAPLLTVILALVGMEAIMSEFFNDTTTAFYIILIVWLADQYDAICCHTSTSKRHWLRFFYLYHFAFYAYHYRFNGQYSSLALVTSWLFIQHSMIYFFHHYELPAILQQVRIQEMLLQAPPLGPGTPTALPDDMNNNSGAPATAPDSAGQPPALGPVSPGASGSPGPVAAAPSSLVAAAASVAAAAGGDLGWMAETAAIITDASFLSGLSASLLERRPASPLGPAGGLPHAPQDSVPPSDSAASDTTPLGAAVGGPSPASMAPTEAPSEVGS

T2: S-tagged UBXD8 (UniProt Q96CS3)
T2 sequence: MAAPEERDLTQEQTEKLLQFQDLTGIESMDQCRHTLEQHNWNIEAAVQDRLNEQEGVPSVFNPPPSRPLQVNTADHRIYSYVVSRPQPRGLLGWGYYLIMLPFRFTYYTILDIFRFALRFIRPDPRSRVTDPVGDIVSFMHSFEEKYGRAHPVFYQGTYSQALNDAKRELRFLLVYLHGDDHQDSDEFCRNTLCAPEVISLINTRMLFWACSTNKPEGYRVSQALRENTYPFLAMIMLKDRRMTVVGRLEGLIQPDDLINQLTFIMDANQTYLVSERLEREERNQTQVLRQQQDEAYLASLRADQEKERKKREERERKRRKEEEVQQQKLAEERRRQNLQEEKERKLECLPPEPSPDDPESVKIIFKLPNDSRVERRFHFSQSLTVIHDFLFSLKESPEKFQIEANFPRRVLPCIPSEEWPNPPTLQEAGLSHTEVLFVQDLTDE

T3: S-tagged AUP1 (UniProt Q9Y679)
T3 sequence: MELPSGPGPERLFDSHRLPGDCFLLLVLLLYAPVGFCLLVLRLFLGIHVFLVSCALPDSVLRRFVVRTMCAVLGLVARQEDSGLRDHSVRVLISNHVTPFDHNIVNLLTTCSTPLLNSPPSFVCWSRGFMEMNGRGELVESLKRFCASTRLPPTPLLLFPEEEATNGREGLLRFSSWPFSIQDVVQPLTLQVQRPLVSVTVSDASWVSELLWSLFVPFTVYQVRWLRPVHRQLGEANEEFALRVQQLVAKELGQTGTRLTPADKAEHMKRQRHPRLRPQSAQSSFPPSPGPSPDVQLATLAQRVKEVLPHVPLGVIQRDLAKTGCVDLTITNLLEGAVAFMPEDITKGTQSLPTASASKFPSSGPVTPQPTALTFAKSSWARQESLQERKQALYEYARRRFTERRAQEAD

T4: S-tagged TMED1 (human) (UniProt Q13445)
T4 sequence: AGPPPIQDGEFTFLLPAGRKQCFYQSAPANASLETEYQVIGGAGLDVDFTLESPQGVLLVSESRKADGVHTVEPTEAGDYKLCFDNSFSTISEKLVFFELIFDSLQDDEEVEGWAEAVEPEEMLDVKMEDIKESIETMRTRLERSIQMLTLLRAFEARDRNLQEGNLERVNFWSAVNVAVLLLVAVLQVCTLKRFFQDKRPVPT


Legend:
FH-RNF26WT (human) [1] = molecular target: FH-RNF26WT (human) (UniProt Q9BY78); experiment: co-IP; FH-RNF26WT Flp-In293 cells transfected with siRNAs (control, TMEM33, TMED1, ENDOD1); anti-FLAG agarose; western blot of endogenous HCIPs
FH-RNF26WT (human) [2] = molecular target: FH-RNF26WT (human) (UniProt Q9BY78); experiment: co-sedimentation; velocity sedimentation of 1% LMNG lysates of FH-RNF26WT cells on a 5-30% sucrose gradient (39,000 rpm, 16 hr, 4°C); 13 fractions, TCA-precipitated, western blot
S-tagged TMEM43 (human) = molecular target: T1, S-tagged TMEM43 (human); experiment: pull-down; S-tagged HCIP transiently expressed in Flp-In293 cells stably expressing the FH-tagged E3; lysates in 1% LMNG; S-protein agarose; western blot
S-tagged UBXD8 = molecular target: T2, S-tagged UBXD8; experiment: as above
S-tagged AUP1 = molecular target: T3, S-tagged AUP1; experiment: as above
S-tagged TMED1 (human) = molecular target: T4, S-tagged TMED1 (human); experiment: as above
TMEM259-S = TMEM259-S (UniProt Q4ZIN3); experiment: as above

Row | binding (FH-RNF26WT (human) [1]) | binding (FH-RNF26WT (human) [2]) | binding (S-tagged TMEM43 (human)) | binding (S-tagged UBXD8) | binding (S-tagged AUP1) | binding (S-tagged TMED1 (human)) | binding (TMEM259-S) | Binder
1 | binds | binds |  |  |  |  |  | TMEM43/LUMA (endogenous) (protein, UniProt Q9BTV4 1-400) MAANYSSTSTRREHVKVKTSSQPGFLERLSETSGGMFVGLMAFLLSFYLIFTNEGRALKTATSLAEGLSLVVSPDSIHSVAPENEGRLVHIIGALRTSKLLSDPNYGVHLPAVKLRRHVEMYQWVETEESREYTEDGQVKKETRYSYNTEWRSEIINSKNFDREIGHKNPSAMAVESFMATAPFVQIGRFFLSSGLIDKVDNFKSLSLSKLEDPHVDIIRRGDFFYHSENPKYPEVGDLRVSFSYAGLSGDDPDLGPAHVVTVIARQRGDQLVPFSTKSGDTLLLLHHGDFSAEEVFHRELRSNSMKTWGLRAAGWMAMFMGLNLMTRILYTLVDWFPVFRDLVNIGLKAFAFCVATSLTLLTVAAGWLFYRPLWALLIAGLALVPILVARTRVPAKKLE
2 |  |  | no binding | no binding | no binding | binds |  | TMEM33 (endogenous) (protein, UniProt P57088 1-247) MADTTPNGPQGAGAVQFMMTNKLDTAMWLSRLFTVYCSALFVLPLLGLHEAASFYQRALLANALTSALRLHQRLPHFQLSRAFLAQALLEDSCHYLLYSLIFVNSYPVTMSIFPVLLFSLLHAATYTKKVLDARGSNSLPLLRSVLDKLSANQQNILKFIACNEIFLMPATVFMLFSGQGSLLQPFIYYRFLTLRYSSRRNPYCRTLFNELRIVVEHIIMKPACPLFVRRLCLQSIAFISRLAPTVP

Continued, binder first:

Row | Binder | binding (FH-RNF26WT (human) [1]) | binding (FH-RNF26WT (human) [2]) | binding (S-tagged TMEM43 (human)) | binding (S-tagged UBXD8) | binding (S-tagged AUP1) | binding (S-tagged TMED1 (human)) | binding (TMEM259-S)
3 | FH-RNF185 (enzyme, UniProt Q96GF1 1-192) MASKGPSASASPENSSAGGPSGSSNGAGESGGQDSTFECNICLDTAKDAVISLCGHLFCWPCLHQWLETRPNRQVCPVCKAGISRDKVIPLYGRGSTGQQDPREKTPPRPQGQRPEPENRGGFQGFGFGDGGFQMSFGIGAFPFGIFATAFNINDGRPPPAVPGTPQYVDEQFLSRLFLFVALVIMFWLLIA |  |  |  |  |  |  | binds
4 | ENDOD1 (endonuclease domain containing-1), endogenous (protein, UniProt O94919 22-500) RLVGEEEAGFGECDKFFYAGTPPAGLAADSHVKICQRAEGAERFATLYSTRDRIPVYSAFRAPRPAPGGAEQRWLVEPQIDDPNSNLEEAINEAEAITSVNSLGSKQALNTDYLDSDYQRGQLYPFSLSSDVQVATFTLTNSAPMTQSFQERWYVNLHSLMDRALTPQCGSGEDLYILTGTVPSDYRVKDKVAVPEFVWLAACCAVPGGGWAMGFVKHTRDSDIIEDVMVKDLQKLLPFNPQLFQNNCGETEQDTEKMKKILEVVNQIQDEERMVQSQKSSSPLSSTRSKRSTLLPPEASEGSSSFLGKLMGFIATPFIKLFQLIYYLVVAILKNIVYFLWCVTKQVINGIESCLYRLGSATISYFMAIGEELVSIPWKVLKVVAKVIRALLRILCCLLKAICRVLSIPVRVLVDVATFPVYTMGAIPIVCKDIALGLGGTVSLLFDTAFGTLGGLFQVVFSVCKRIGYKVTFDNSGEL |  |  | binds | no binding | no binding | binds | 

Source: PMC7332293
